{"source": "the supplement of paper PMC8728848", "assay_in_all_cases": "glycan array binding signal (z-score within array); higher = stronger binding", "conditions_in_all_cases": "glycan notation: IUPAC condensed, linker removed", "key": {"[1]": {"target": "GlcNAc(b1-3)Gal(b1-4)GlcNAc(b1-3)Gal(b1-4)GlcNAc", "summary_of_the_method": "(§1)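 Arrays were curated from the Consortium for Functional Glycomics database, 3228 in total, and kept only where the protein sequence was available. Binding is expressed as a within-array Z-score. This score was averaged across arrays of the same protein sequence at different concentrations or buffers and across linkers, and negative values can be read as non-binding.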"}, "[2]": {"target": "GlcNAc(b1-3)GalNAc", "summary_of_the_method": "as §1"}, "[3]": {"target": "GlcNAc(b1-3)Man", "summary_of_the_method": "as §1"}, "[4]": {"target": "GlcNAc(b1-3)[GlcNAc(b1-4)][GlcNAc(b1-6)]GlcNAc", "summary_of_the_method": "as §1"}, "[5]": {"target": "GlcNAc(b1-3)[GlcNAc(b1-6)]Gal(b1-4)GlcNAc", "summary_of_the_method": "as §1"}, "[6]": {"target": "GlcNAc(b1-3)[GlcNAc(b1-6)]GalNAc", "summary_of_the_method": "as §1"}, "[7]": {"target": "GlcNAc(b1-4)Gal(b1-4)GlcNAc", "summary_of_the_method": "as §1"}, "[8]": {"target": "GlcNAc(b1-4)GlcNAc", "summary_of_the_method": "as §1"}, "[9]": {"target": "GlcNAc(b1-4)GlcNAc(b1-4)GlcNAc", "summary_of_the_method": "as §1"}, "[10]": {"target": "GlcNAc(b1-4)GlcNAc(b1-4)GlcNAc(b1-4)GlcNAc(b1-4)GlcNAc", "summary_of_the_method": "as §1"}, "[11]": {"target": "GlcNAc(b1-4)GlcNAc(b1-4)GlcNAc(b1-4)GlcNAc(b1-4)GlcNAc(b1-4)GlcNAc", "summary_of_the_method": "as §1"}, "[12]": {"target": "GlcNAc(b1-4)[GlcNAc(b1-6)]GalNAc", "summary_of_the_method": "as §1"}, "[13]": {"target": "GlcNAc(b1-6)Gal(b1-4)GlcNAc", "summary_of_the_method": "as §1"}, "[14]": {"target": "GlcNAc(b1-6)GalNAc", "summary_of_the_method": "as §1"}, "[15]": {"target": "GlcNAc3Prop(b1-4)GlcNAc", "summary_of_the_method": "as §1"}, "[16]": {"target": "GlcNAc6S(b1-3)Gal(b1-4)GlcNAc", "summary_of_the_method": "as §1"}, "[17]": {"target": "Kdn(a2-3)Gal(b1-3)GalNAc", "summary_of_the_method": "as §1"}, "[18]": {"target": "Kdn(a2-3)Gal(b1-3)GlcNAc", "summary_of_the_method": "as §1"}, "[19]": {"target": "Kdn(a2-3)Gal(b1-4)Glc", "summary_of_the_method": "as §1"}, "[20]": {"target": "Kdn(a2-3)Gal(b1-4)GlcNAc", "summary_of_the_method": "as §1"}, "[21]": {"target": "Kdn(a2-3)Gal(b1-4)[Fuc(a1-3)]GlcNAc", "summary_of_the_method": "as §1"}, "[22]": {"target": "Kdn(a2-6)Gal(b1-4)GlcNAc", "summary_of_the_method": "as §1"}, "[23]": {"target": "Man(a1-2)Man(a1-2)Man(a1-3)Man", "summary_of_the_method": "as §1"}, "[24]": {"target": "Man(a1-2)Man(a1-2)Man(a1-6)[Man(a1-3)]Man", "summary_of_the_method": "as §1"}, "[25]": {"target": "Man(a1-2)Man(a1-3)Man", "summary_of_the_method": "as §1"}, "[26]": {"target": "Man(a1-2)Man(a1-3)[Man(a1-2)Man(a1-6)]Man", "summary_of_the_method": "as §1"}, "[27]": {"target": "Man(a1-2)Man(a1-3)[Man(a1-2)Man(a1-6)]Man(a1-6)[Man(a1-2)Man(a1-2)Man(a1-3)]Man", "summary_of_the_method": "as §1"}, "[28]": {"target": "Man(a1-2)Man(a1-3)[Man(a1-2)Man(a1-6)]Man(a1-6)[Man(a1-2)Man(a1-2)Man(a1-3)]Man(b1-4)GlcNAc(b1-4)GlcNAc", "summary_of_the_method": "as §1"}, "[29]": {"target": "Man(a1-2)Man(a1-3)[Man(a1-6)]Man(a1-6)[Man(a1-2)Man(a1-3)]Man(b1-4)GlcNAc(b1-4)GlcNAc", "summary_of_the_method": "as §1"}, "[30]": {"target": "Man(a1-2)Man(a1-6)[Man(a1-3)]Man(a1-6)[Man(a1-2)Man(a1-2)Man(a1-3)]Man", "summary_of_the_method": "as §1"}, "[31]": {"target": "Man(a1-2)Man(a1-6)[Man(a1-3)]Man(a1-6)[Man(a1-2)Man(a1-2)Man(a1-3)]Man(b1-4)GlcNAc(b1-4)GlcNAc", "summary_of_the_method": "as §1"}, "[32]": {"target": "Man(a1-3)[Man(a1-6)]Man", "summary_of_the_method": "as §1"}, "[33]": {"target": "Man(a1-3)[Man(a1-6)]Man(a1-6)[Man(a1-2)Man(a1-3)]Man(b1-4)GlcNAc(b1-4)GlcNAc", "summary_of_the_method": "as §1"}, "[34]": {"target": "Man(a1-3)[Man(a1-6)]Man(a1-6)[Man(a1-3)]Man", "summary_of_the_method": "as §1"}, "[35]": {"target": "Man(a1-3)[Man(a1-6)]Man(a1-6)[Man(a1-3)]Man(b1-4)GlcNAc(b1-4)GlcNAc", "summary_of_the_method": "as §1"}, "[36]": {"target": "Man(a1-3)[Man(a1-6)]Man(b1-4)GlcNAc(b1-4)GlcNAc", "summary_of_the_method": "as §1"}, "[37]": {"target": "Man(a1-6)Man", "summary_of_the_method": "as §1"}}, "note": "The other results are listed elsewhere or left out."}
{"binder": "SLP (Clostridium difficile), Q183M8 (protein) MATTGTQGYTVVKNDWKKAVKQLQDGLKDNSIGKITVSFNDGVVGEVAPKSANKKADRDAAAEKLYNLVNTQLDKLGDGDYVDFSVDYNLENKIITNQADAEAIVTKLNSLNEKTLIDIATKDTFGMVSKTQDSEGKNVAATKALKVKDVATFGLKSGGSEDTGYVVEMKAGAVEDKYGKVGDSTAGIAINLPSTGLEYAGKGTTIDFNKTLKVDVTGGSTPSAVAVSGFVTKDDTDLAKSGTINVRVINAKEESIDIDASSYTSAENLAKRYVFDPDEISEAYKAIVALQNDGIESNLVQLVNGKYQVIFYPEGKRLETKSLEHHHHHH", "values": [{"measurement": "glycan array binding signal (z-score)", "setting": "[1]", "result": -0.209}, {"measurement": "glycan array binding signal (z-score)", "setting": "[2]", "result": -0.138}, {"measurement": "glycan array binding signal (z-score)", "setting": "[3]", "result": -0.202}, {"measurement": "glycan array binding signal (z-score)", "setting": "[4]", "result": -0.151}, {"measurement": "glycan array binding signal (z-score)", "setting": "[5]", "result": -0.195}, {"measurement": "glycan array binding signal (z-score)", "setting": "[6]", "result": 0.651}, {"measurement": "glycan array binding signal (z-score)", "setting": "[7]", "result": -0.082}, {"measurement": "glycan array binding signal (z-score)", "setting": "[8]", "result": -0.18}, {"measurement": "glycan array binding signal (z-score)", "setting": "[9]", "result": -0.054}, {"measurement": "glycan array binding signal (z-score)", "setting": "[10]", "result": -0.08}, {"measurement": "glycan array binding signal (z-score)", "setting": "[11]", "result": -0.119}, {"measurement": "glycan array binding signal (z-score)", "setting": "[12]", "result": -0.161}, {"measurement": "glycan array binding signal (z-score)", "setting": "[13]", "result": -0.175}, {"measurement": "glycan array binding signal (z-score)", "setting": "[14]", "result": -0.139}, {"measurement": "glycan array binding signal (z-score)", "setting": "[15]", "result": -0.141}, {"measurement": "glycan array binding signal (z-score)", "setting": "[16]", "result": -0.201}, {"measurement": "glycan array binding signal (z-score)", "setting": "[17]", "result": -0.189}, {"measurement": "glycan array binding signal (z-score)", "setting": "[18]", "result": -0.162}, {"measurement": "glycan array binding signal (z-score)", "setting": "[19]", "result": -0.2}, {"measurement": "glycan array binding signal (z-score)", "setting": "[20]", "result": -0.195}, {"measurement": "glycan array binding signal (z-score)", "setting": "[21]", "result": -0.144}, {"measurement": "glycan array binding signal (z-score)", "setting": "[22]", "result": -0.176}, {"measurement": "glycan array binding signal (z-score)", "setting": "[23]", "result": 2.27}, {"measurement": "glycan array binding signal (z-score)", "setting": "[24]", "result": -0.17}, {"measurement": "glycan array binding signal (z-score)", "setting": "[25]", "result": -0.117}, {"measurement": "glycan array binding signal (z-score)", "setting": "[26]", "result": -0.192}, {"measurement": "glycan array binding signal (z-score)", "setting": "[27]", "result": -0.18}, {"measurement": "glycan array binding signal (z-score)", "setting": "[28]", "result": -0.167}, {"measurement": "glycan array binding signal (z-score)", "setting": "[29]", "result": -0.154}, {"measurement": "glycan array binding signal (z-score)", "setting": "[30]", "result": -0.161}, {"measurement": "glycan array binding signal (z-score)", "setting": "[31]", "result": -0.129}, {"measurement": "glycan array binding signal (z-score)", "setting": "[32]", "result": -0.17}, {"measurement": "glycan array binding signal (z-score)", "setting": "[33]", "result": -0.142}, {"measurement": "glycan array binding signal (z-score)", "setting": "[34]", "result": -0.206}, {"measurement": "glycan array binding signal (z-score)", "setting": "[35]", "result": -0.166}, {"measurement": "glycan array binding signal (z-score)", "setting": "[36]", "result": -0.173}, {"measurement": "glycan array binding signal (z-score)", "setting": "[37]", "result": -0.213}]}
